Assay results reported in PubChem BioAssay AID1963576 (National Center for Advancing Translational Sciences (NCATS), 2024).
In all, about 46,000 compounds went through this assay and about 60 (0.1%) were called active. About 3% were inconclusive and are not listed. Calls follow the shape of the dose curve; as a rule, active = well fitted inhibition curve with a large enough effect; inconclusive = small, poorly fitted or top-dose-only effect; inactive = no such curve, though single readings can be large or run the other way. Some of the results follow.

Test: Primary qHTS assay for Inhibitors of ovarian cancer metastasis using an organotypic tumor microenvironment (TME) model. Also: nearly all actives have a fitted effect of over 65% in size.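 As to activity change, negative = inhibition: plate controls were DMSO wells for no effect and tomatine positive control wells for full effect.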
Details: SKOV3ip1-GFP adhesion/invasion on 3D omental model, fluorescence; series mostly up to 45.8 µM; activity change, negative = inhibition: at the top concentration
Outline: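 qHTS, 4-pt dose (0.36-46 umol/L); SKOV3ip1-GFP, 1,200 cells/well, no FBS; primary omental fibroblast/mesothelial co-culture 48 h pre-grown; 2 h RT + 16 h 37 C; PBS wash, 4% PFA; GFP count 488/509 nm.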
For `Cc1cccc(OCC(=O)N2CCN(CCc3ccccn3)CC2)c1`, the “activity change, negative = inhibition” value was inactive: 6.16%. For `O=P1(N(CCCl)CCCl)NCCCO1` (configuration not stated), the “activity change, negative = inhibition” value was inactive: -6.64%. With `O=C(COc1cc(Cl)ccc1Cl)Nc1ccc(Cl)cc1C(=O)c1ccccc1` the “activity change, negative = inhibition” value was inactive: -1.86%. With `CN1C(=O)CCS(=O)(=O)C1c1ccc(Cl)cc1` (configuration not stated) the “activity change, negative = inhibition” value was inactive: 28.2%. For `CN(C)[C@@H]1C(=O)C(C(N)=O)=C(O)[C@@]2(O)C(=O)C3=C(O)c4c(O)cccc4[C@@](C)(O)[C@H]3[C@H](O)[C@@H]12`, the “activity change, negative = inhibition” value was inactive: -3.63%. For `O=C(COc1ccccc1F)N1CCN(Cc2cc(=O)n3nc(-c4ccccc4Cl)sc3n2)CC1`, the “activity change, negative = inhibition” value was inactive: 2.87%. With `N#C[C@H](O[C@@H]1O[C@H](CO[C@@H]2O[C@H](CO)[C@H](O)[C@H](O)[C@H]2O)[C@H](O)[C@H](O)[C@H]1O)c1ccccc1` the “activity change, negative = inhibition” value was inactive: -17.6%. In the case of `Cc1ccc2c(c1)C(Cc1nc3ccccc3c(=O)n1-c1ccc(Br)cc1)C(=O)N2` (configuration not stated), the “activity change, negative = inhibition” value is reported as inactive: 0.159%. In the case of `COc1ccc(NC(=O)c2sc3nc4c(cc3c2N)N2CCC4CC2)cc1OC`, the “activity change, negative = inhibition” value is reported as inactive: 6.81%. For `Cc1cccc(-c2nc(CN3C(=O)CN=C(c4ccccc4)c4ccccc43)c(C)o2)c1`, the “activity change, negative = inhibition” value was inactive: 0.923%. For `CC(=O)O[C@@]12CO[C@H]1C[C@H](O)[C@@]1(C)C(=O)[C@H](O)C3=C(C)[C@@H](O)C[C@@](O)([C@@H](OC(=O)c4ccccc4)[C@@H]21)C3(C)C`, the “activity change, negative = inhibition” value was inactive: -0.273%. In the case of `Cc1ccc(-n2c(/C=C\c3ccc(F)cc3)nc3ccccc3c2=O)cc1Cl`, the “activity change, negative = inhibition” value is reported as inactive: 27%. With `CC(C)C12CN3CC(C(C)C)(CN(C1)C3c1ccccn1)C2=O` (configuration not stated) the “activity change, negative = inhibition” value was inactive: 2.52%. With `CCOc1ccc(NC(=O)Cn2cc(C(=O)c3ccccc3)c3ccccc32)cc1` the “activity change, negative = inhibition” value was inactive: -3.27%. For `COc1ccc(C)cc1NC(=O)N(Cc1ccc2c(c1)OCO2)C1CCN(Cc2ccccc2)CC1`, the “activity change, negative = inhibition” value was inactive: -3.95%. With `Cc1ccc2nc(NC(=O)c3cccn(Cc4ccc(Cl)cc4)c3=O)sc2c1` the “outcome” value was “inactive”. In the case of `COC[C@@H](NC(C)=O)C(=O)NCc1ccccc1`, the “activity change, negative = inhibition” value is reported as inactive: 3.52%. With `Cc1ccc(Cl)cc1NC(=O)N(Cc1ccc2c(c1)OCO2)C1CCN(Cc2ccccc2)CC1` the “activity change, negative = inhibition” value was inactive: 1.43%. In the case of `Cn1c(=O)n(C)c2cc(CNCCc3ccc(F)cc3)ccc21`, the “activity change, negative = inhibition” value is reported as inactive: 1.09%. In the case of `Cc1ccc(NC(=O)Cn2cc(C(=O)c3ccccc3)c3ccccc32)cc1`, the “outcome” value is reported as “inactive”. With `CNC(=O)N1N=C(c2ccc(N)cc2)c2cc3c(cc2CC1C)OCO3` (configuration not stated) the “activity change, negative = inhibition” value was inactive: -8.14%. For `Cc1ccc(Cn2cccc(C(=O)Nc3ccc4c(c3)OCO4)c2=O)cc1`, the “outcome” value was “inactive”. In the case of `CC1=NN=C(c2ccc(N)cc2)c2cc3c(cc2C1)OCO3`, the “activity change, negative = inhibition” value is reported as inactive: 6.68%. In the case of `Cc1cccc(Cn2cccc(C(=O)Nc3ccc4c(c3)OCCO4)c2=O)c1`, the “activity change, negative = inhibition” value is reported as inactive: -5.99%. With `CCN(CC)CCSc1nc2ccccc2c(=O)n1-c1ccc(Cl)cc1` the “activity change, negative = inhibition” value was inactive: -0.313%. In the case of `COc1cccc(NC(=O)Cn2cc(C(=O)c3ccccc3)c3ccccc32)c1`, the “outcome” value is reported as “inactive”. For `CCCOc1ccc(C2SCC(=O)Nc3c2c(C)nn3-c2cccc(C)c2)cc1OC` (configuration not stated), the “outcome” value was “inactive”. With `COc1ccc(C(CN(C)C)C2(O)CCCCC2)cc1` (configuration not stated) the “activity change, negative = inhibition” value was inactive: 6.83%. For `COc1ccc(C(=O)Nc2ccc(Cl)cc2C(=O)c2ccccc2)c(OC)c1`, the “activity change, negative = inhibition” value was inactive: -3.62%. In the case of `Cc1ccccc1CN1C(=O)CN=C(c2ccccc2)c2cc(Cl)ccc21`, the “outcome” value is reported as “inactive”. In the case of `Cc1ccc(OCC(=O)N2CCN(CCc3ccncc3)CC2)cc1C`, the “activity change, negative = inhibition” value is reported as inactive: -3.67%. For `Cc1ccc(-n2c(/C=C/c3cc(Br)cs3)nc3ccccc3c2=O)cc1`, the “outcome” value was “inactive”. In the case of `O=C(Oc1ccc([N+](=O)[O-])cc1)N1CCN(Cc2cccc(Oc3ccccc3)c2)CC1`, the “activity change, negative = inhibition” value is reported as inactive: -27%. With `O=c1c2ccccc2nc(/C=C\c2ccccc2F)n1-c1ccc(O)cc1` the “activity change, negative = inhibition” value was inactive: 3.52%. With `CCCCc1ccc(NC(=O)c2cccn(Cc3ccc(Cl)cc3)c2=O)cc1` the “outcome” value was “inactive”. With `Cc1c(C(c2ccc(Cl)cc2Cl)c2c(O)c3ccccc3oc2=O)c(=O)n(-c2ccccc2)n1C` (configuration not stated) the “activity change, negative = inhibition” value was inactive: 0.649%. With `Cc1cc(-n2c(/C=C/c3ccc(Br)s3)nc3ccccc3c2=O)ccc1Br` the “outcome” value was “inactive”. For `Cc1cc(-n2c(/C=C/c3cccs3)nc3ccccc3c2=O)ccc1Br`, the “activity change, negative = inhibition” value was inactive: 0.957%. In the case of `O=c1c2ccccc2nc(/C=C/c2cccc3ccccc23)n1-c1ccccc1Cl`, the “activity change, negative = inhibition” value is reported as inactive: -3.16%. In the case of `COc1ccc(Cl)cc1NC(=O)CN1C(=O)CN=C(c2ccccc2)c2cc(Cl)ccc21`, the “activity change, negative = inhibition” value is reported as inactive: -17.8%. With `Cc1ccc(-n2c(/C=C/c3ccc(Br)s3)nc3ccccc3c2=O)cc1` the “activity change, negative = inhibition” value was inactive: 20%. For `COc1ccc(C(=O)c2c(C)n(CCN3CCOCC3)c3ccccc23)cc1`, the “activity change, negative = inhibition” value was inactive: -2.19%. For `CCc1ccc(NC(=O)c2cccn(Cc3cccc([N+](=O)[O-])c3)c2=O)cc1`, the “outcome” value was “inactive”. In the case of `Cc1[nH]nc2ccc(-c3cncc(OC[C@@H](N)Cc4c[nH]c5ccccc45)c3)cc12`, the “activity change, negative = inhibition” value is reported as inactive: -4.94%. With `CO[C@H]1CCC(O[C@H]2C[C@H]([C@]3(C)CC[C@]4(C[C@H](O)[C@@H](C)[C@@H]([C@@H](C)C=C(C)C(=O)[C@H](C)C[C@H](C)C(=O)O)O4)O3)O[C@]3(O[C@@H]([C@H]4O[C@@](O)(CO)[C@H](C)C[C@H]4C)C[C@H]3C)[C@H]2C)O[C@H]1C` (some centres not stated) the “activity change, negative = inhibition” value was inactive: -19.5%. For `CNCC(O)c1ccc(O)cc1` (configuration not stated), the “activity change, negative = inhibition” value was inactive: -0.226%. With `N#Cc1cc2c(nc1SCC(=O)Nc1ccc(OC(F)(F)F)cc1)C1CCN2CC1` the “activity change, negative = inhibition” value was inactive: -16.5%.
